Laboratory results from ChEMBL document CHEMBL4888484, “Replenishing the malaria drug discovery pipeline: Screening and hit evaluation of the MMV Hit Generation Library 1 (HGL1) against asexual blood stage Plasmodium falciparum ,using a nano luciferase reporter read-out” (2022).
Where “and” joins values, the source holds several entries; their conditions need not be identical. Identical values can stand only once. Hit rate of the full screen: of about 150,000 compounds, about 540 (0.36%) showed an effect of 50% or more. The list shows a part of the results.

Tested on: Plasmodium falciparum
Assay: Primary screen in NF54 nanoGlo assay, in single point, at 2uM, 72h; a lower Z score goes with more inhibition
Type: functional, Erythrocyte
Settings: timepoint 72 hour

## CN1CC2(CCN(C(=O)c3cccn3C)CC2)C[C@@H](c2ccccc2)C1=O
  % Inhibition: 5%
  Z score: -0.75

## Cc1cc(C)nc(CN(C)Cc2ccc(OC(C)C)c(CO)c2)c1
  % Inhibition: -14%
  Z score: 1.72

## COc1cccc(NC(=O)Cn2nc(-c3ccccc3)c3cnc4ccccc4c32)c1
  % Inhibition: -10%
  Z score: 0.92

## C[C@@H](Cc1ccccn1)N(C)C(=O)c1ccc(-c2ccccc2)[nH]1
  % Inhibition: 1%
  Z score: -0.14

## CN1CCN(c2nnc(-c3ccccc3)s2)CC1
  % Inhibition: 13%
  Z score: -1.9

## CN1CCN(Cc2cc3cc4c(cc3nc2-c2ccc(Cl)cc2)OCO4)CC1=O
  % Inhibition: 53%
  Z score: -6.77

## CC(=O)NC1CC(=O)N(C2CC2c2ccccc2)C1 (configuration not stated)
  % Inhibition: -1%
  Z score: 0.18

## COc1ccccc1CCn1cnc(-c2ccccc2)c1-c1c[nH]c(C)n1
  % Inhibition: -1%
  Z score: 0.19

## Cc1ccc(C)n1CC(=O)Nc1ccc(C(F)(F)F)cn1
  % Inhibition: -2%
  Z score: 0.25

## CCCn1c(=O)c(N2CCN(C(=O)Cc3ccc(F)cc3)CC2)nc2ccccc21
  % Inhibition: -8%
  Z score: 1.38

## O=C(CC1CCCCC1)NC1CCN(CCn2cccn2)CC1
  % Inhibition: -5%
  Z score: 0.88

## CC(C)Cc1nc(NC(=O)Cc2ccc3c(c2)OCC3)n[nH]1
  % Inhibition: 0%
  Z score: 0.01

## COC(=O)[C@H](C)c1c(C)nn(Cc2noc(C(C)C)n2)c1C
  % Inhibition: 0%
  Z score: 0.07

## O=C(Cn1cnc(-c2noc(-c3ccccc3)n2)c1)NCc1ccccc1Cl
  % Inhibition: -12%
  Z score: 2.21

## CCNc1nc(C)c(C(=O)N[C@@H](CC)c2ccc(C)cn2)s1
  % Inhibition: -14%
  Z score: 1.81

## O=C(N[C@@H]1CC[C@H]2CCOc3ccccc3C(=O)N3CCN(CC4CC4)C[C@H]3C(=O)NC[C@H]1O2)C1CCOCC1
  % Inhibition: 0%
  Z score: -0.01

## CCCN(CCC)C(=O)c1cnn(C)c1
  % Inhibition: -14%
  Z score: 1.49

## COC(=O)c1c(C)cccc1S(=O)(=O)Nc1ccc2oc(C3CC3)nc2c1
  % Inhibition: -4%
  Z score: 0.69

## O=C1C[C@H](c2ccccc2)c2sc(N3CCCCC3)nc2N1
2 µM
  % Inhibition: -8% and -4%
  Z score: 1.05 and 0.52

## NC(=O)CN1CC=C(C(F)(F)F)CC1
  % Inhibition: -5%
  Z score: 0.74

## O=C(Nc1ccc2snnc2c1)NC1CCCCC1
  % Inhibition: -7%
  Z score: 0.94

## Cc1n[nH]c([C@@H]2CN(C(=O)c3cccn3C)CCCN2C(=O)c2ccccc2)n1
  % Inhibition: -8%
  Z score: 1.46

## NC[C@H](C(=O)NCc1cncc(O)c1)C1CCCCCC1
  % Inhibition: -12%
  Z score: 2.18

## O=C(NCc1ccco1)N[C@@H]1COCC[C@@H]1OCC1CC1
  % Inhibition: -15%
  Z score: 1.32

## O=C(NC1CC1)C1(F)CCN(S(=O)(=O)c2cccc(F)c2)CC1
  % Inhibition: -19%
  Z score: 2.51

## COc1ccnc(NC(=O)OCC(F)(F)F)c1
  % Inhibition: -7%
  Z score: 0.98

## CC[C@@]1(C)COCCN1CCN1CCCCC1
  % Inhibition: 3%
  Z score: -0.34

## Cc1nc(C)c(C(=O)N[C@H]2CCCc3occc32)s1
  % Inhibition: 1%
  Z score: -0.25

## COCc1ccc(C(=O)N2CC[C@H](CO)C[C@@H]2C)o1
  % Inhibition: -7%
  Z score: 0.79

## Cc1ccc2c(c1)cc(CN(C)Cc1nc(C)c[nH]1)n2C
  % Inhibition: -12%
  Z score: 1.17

## O=C1COCC(CC2CN(c3ncc(Cl)cn3)c3ccccc32)N1 (configuration not stated)
  % Inhibition: -4%
  Z score: 0.84

## O=C(c1ccncc1)N1C[C@H]2CC[C@@H](C1)N(C(=O)C1CCCCCC1)C2
  % Inhibition: -3%
  Z score: 0.5

## CCCc1nc(C)cc(N2C[C@H]3CC[C@@H](C2)N(CC(=O)N(C)C)C3=O)n1
  % Inhibition: -10%
  Z score: 0.94

## CCN(CC)c1ccc2nnc(CCC(=O)Nc3ccc4c(c3)OCCO4)n2n1
  % Inhibition: -16%
  Z score: 2.88

## Cc1ccc(-n2nc(C3CC3)nc2[C@H](O)c2ccccc2)cc1C
  % Inhibition: 4%
  Z score: -0.53

## Cc1cc(CNCc2cc(Br)ccc2F)on1
  % Inhibition: -5%
  Z score: 0.9

## COc1ccccc1CN(C[C@H](O)COC(C)(C)C)C(C)C
  % Inhibition: -6%
  Z score: 1.04

## C[C@@H](CC(=O)NS(=O)(=O)c1cccc2c1N=S=N2)C1CC1
  % Inhibition: -5%
  Z score: 0.59

## O=C(NCc1ccncc1)C1Cc2cc(C(F)(F)F)ccc2N2CCN(Cc3ccc(F)cc3)CC12 (configuration not stated)
  % Inhibition: -4%
  Z score: 0.58

## COc1ccccc1C1CN2C(=O)N(c3ccc(Cl)cc3Cl)C(=O)[C@]2(C)c2[nH]c3ccccc3c21 (some centres not stated)
  % Inhibition: -13%
  Z score: 1.68

## O=C(N[C@H](c1cccs1)C1CCOCC1)c1ccc(Oc2nccs2)cc1
  % Inhibition: -15%
  Z score: 2.22

## O=C(NCCNC(=O)C1(c2ccc(F)cc2)CCC1)c1cnccn1
  % Inhibition: 2%
  Z score: -0.34

## C[C@H](NCC1(N(C)C)CCOCC1)C(F)(F)c1ccccc1
  % Inhibition: -8%
  Z score: 0.96

## Nc1cccc2c1NC(c1ccc(Cl)cc1)C1CCCC21 (configuration not stated)
  % Inhibition: -4%
  Z score: 0.51

## O=C(c1ccc(Cl)c(F)c1)N1C[C@@H](CN2CCCCC2)[C@@H](CO)C1
  % Inhibition: 5%
  Z score: -0.81

## O=C(Nc1ccc(F)cn1)N1CCN([C@@H](CO)c2ccc(Cl)cc2)CC1
  % Inhibition: -7%
  Z score: 1.4

## Cc1nc(C)c(C(=O)N[C@@H](CC(C)C)c2nc(-c3nnc[nH]3)no2)o1
  % Inhibition: 12%
  Z score: -1.34

## c1csc(CCN2CCc3nn[nH]c3C2)c1
  % Inhibition: 1%
  Z score: -0.2

## CC(C)[C@H](CCO)Nc1cccc(F)c1C#N
  % Inhibition: 1%
  Z score: -0.25

## Cc1noc(C)c1C(=O)N[C@H](c1ccccc1)c1cc2ccccc2o1
  % Inhibition: 3%
  Z score: -0.57

## CN(CCC#N)S(=O)(=O)N1CC[C@H](Cc2ccncc2)C1
  % Inhibition: -5%
  Z score: 0.57

## Cc1cc(Cl)ccc1NC(=O)Cc1nnc(-c2cnccn2)o1
  % Inhibition: -15%
  Z score: 1.5

## Cc1cc(C)c(S(=O)(=O)N2CC[C@H](n3cccn3)C2)s1
  % Inhibition: -1%
  Z score: 0.1

## COc1cc(OC)c(OC)cc1CN1CC(=O)N(C)C2(CCOCC2)C1
  % Inhibition: -4%
  Z score: 0.6

## O=C(NCc1cccs1)N1CCN(c2cnsn2)CC1
  % Inhibition: -8%
  Z score: 0.98

## COc1cncc(O[C@H]2CCCN(C(=O)Cc3cccs3)C2)n1
  % Inhibition: 18%
  Z score: -3

## C[C@H](NC(=O)c1ccoc1C1CC1)c1nccs1
  % Inhibition: -11%
  Z score: 1.47

## O=C(NCc1cccnc1-c1cccnc1)c1cccc(Cl)c1
  % Inhibition: -1%
  Z score: 0.19

## CCc1nnc2ccc(N[C@H]3CC[C@@H](C(=O)N4CCCC4)C3)nn12
  % Inhibition: -5%
  Z score: 0.57

## CCOC[C@H]1CCCN(C(=O)c2cnn3cccc(OC)c23)C1
  % Inhibition: -7%
  Z score: 0.69

## Cc1ncc(C(C)C)c(NCC2(CO)CCCC2)n1
  % Inhibition: -6%
  Z score: 1.12

## O=C(Nc1cccc(-c2ccccc2)c1)N1CCC(C(=O)N2CCCC2)CC1
  % Inhibition: 3%
  Z score: -0.26

## COc1nn(C)cc1C(=O)Nc1nnc(-c2csc(C)n2)o1
  % Inhibition: -21%
  Z score: 3.09

## OC(COc1ccccc1)CN1CCN(CC2CCCCO2)CC1 (configuration not stated)
  % Inhibition: -2%
  Z score: 0.18

## CCn1ncc(CN(C)Cc2scnc2C)c1C
  % Inhibition: -8%
  Z score: 1.06

## CN1CC(NC(=O)C2CCS(=O)(=O)C2)Cc2ccccc21 (configuration not stated)
  % Inhibition: -14%
  Z score: 1.34

## CNC(=O)[C@@H]1C[C@H](Oc2ccccc2)CN1C1CCN(Cc2cn(C)c3ccccc23)CC1
  % Inhibition: -10%
  Z score: 1.15

## CCOC(=O)c1nc(NC(=O)NCCF)sc1C(F)(F)F
  % Inhibition: -4%
  Z score: 0.46

## CC(C)(C)CC(=O)N1CCC[C@H](OCc2ccccc2F)C1
  % Inhibition: -8%
  Z score: 0.82

## CN(C)c1ccc(CNc2sc3c(c2C#N)CCCCCCCCCC3)cc1
  % Inhibition: 9%
  Z score: -1.14

## Cc1n[nH]c(C)c1CN(C)c1ccccc1
  % Inhibition: -4%
  Z score: 0.39

## C#CCCCCC(=O)NC1CCCCC1
  % Inhibition: -9%
  Z score: 1.1

## COCc1nc(-c2nc3c([nH]2)C[C@H](c2cccc(OC)c2)CNC3=O)no1
  % Inhibition: -9%
  Z score: 1.16

## CC(C)(C#N)CCCNc1ccccc1C(=O)NCC(F)(F)F
  % Inhibition: -8%
  Z score: 1.4

## CC(=O)N(CCNC(=O)c1noc(C)c1Cn1cccn1)C1CCOCC1
  % Inhibition: -6%
  Z score: 1.05

## O=C(C1CCN(c2ccc3c(Cl)ccc(Cl)c3n2)CC1)N1CCOCC1
  % Inhibition: -13%
  Z score: 1.33

## CCN(Cc1ccccc1)C1=NS(=O)(=O)C(c2ccc(F)cc2)=C1C
  % Inhibition: -6%
  Z score: 0.8

## CCC(CC)(CCO)CNC(=O)Nc1ccccc1
  % Inhibition: -3%
  Z score: 0.35

## Cc1ccncc1NC(=O)CCCNC(=O)OC(C)(C)C
  % Inhibition: -3%
  Z score: 0.24

## CCCc1cc(C(=O)N(CC)[C@@H](C)Cc2ccsc2)[nH]n1
  % Inhibition: 12%
  Z score: -1.39

## COc1ccc(-c2cc(-c3cn(CCO)nc3C)c(C#N)c(N)n2)cc1F
  % Inhibition: -11%
  Z score: 1.63

## CCCc1cnc(C)nc1N1CCC(N2CCN(c3ccccn3)CC2)CC1
  % Inhibition: 6%
  Z score: -0.85

## C[C@H]1CN(c2ccc(C#N)cn2)C[C@]1(O)C1CC1
  % Inhibition: 3%
  Z score: -0.65

## Cc1ccsc1[C@@H]1CCCCCN1S(=O)(=O)Cc1ccccc1
  % Inhibition: 2%
  Z score: -0.45

## O=C1C[C@H](CNS(=O)(=O)CC2CCCC2)CN1C1CC1
  % Inhibition: -1%
  Z score: 0.17

## Cc1nc2cc(CCc3c(C)n[nH]c3C)ccc2o1
  % Inhibition: 0%
  Z score: 0.03
